Measured values published in the BET-seq Pho4 binding data (Le et al. 2018).
The list shows a part of the results. These are noisy estimates, calculated here from bound and input reads.

The sequences below were run against T1, Pho4 (S. cerevisiae) (UniProt P07270) (assay: relative binding free energy (BET-seq); higher = weaker binding). Conditions: reference: library average.
T1 sequence: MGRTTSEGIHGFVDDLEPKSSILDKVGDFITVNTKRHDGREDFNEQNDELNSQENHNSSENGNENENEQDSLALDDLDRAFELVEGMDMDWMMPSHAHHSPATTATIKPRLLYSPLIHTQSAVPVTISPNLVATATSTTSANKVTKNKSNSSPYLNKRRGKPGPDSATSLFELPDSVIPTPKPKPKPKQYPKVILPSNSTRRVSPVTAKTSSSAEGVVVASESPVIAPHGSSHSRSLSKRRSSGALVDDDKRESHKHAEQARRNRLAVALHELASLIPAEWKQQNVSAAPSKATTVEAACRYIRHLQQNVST

Sequence | relative binding free energy
GTATACACGTGGATTA | 0.15 kcal/mol
AACATCACGTGGTGGG | 0.13 kcal/mol
TTTAACACGTGATTCG | 0.33 kcal/mol
AATCTCACGTGTGTGA | 0.21 kcal/mol
TGGAGCACGTGCAGGT | -0.21 kcal/mol
TGGCTCACGTGGGTCA | 0.05 kcal/mol
AGGGGCACGTGTTTTG | -0.06 kcal/mol
GGCGGCACGTGGGGTT | -0.14 kcal/mol
TCATGCACGTGTGTGA | -0.05 kcal/mol
TAGAGCACGTGGGTCG | -0.3 kcal/mol
AAGTACACGTGGATTT | 0.26 kcal/mol
ATGCTCACGTGGGGCT | -0.03 kcal/mol
CTTGGCACGTGACAGT | -0.03 kcal/mol
TTTAGCACGTGACGGT | 0.1 kcal/mol
GTTTCCACGTGGCTTT | 0.11 kcal/mol
AGGTGCACGTGAGTCG | 0.26 kcal/mol
TGTGGCACGTGCGTAT | -0.03 kcal/mol
TGAGTCACGTGCTGTT | 0.06 kcal/mol
ATTGTCACGTGAAAAT | 0.24 kcal/mol
TCTTTCACGTGTCGTG | 0.27 kcal/mol
ATTTGCACGTGTTTAT | -0.05 kcal/mol
GGGGGCACGTGCCGTT | -0.28 kcal/mol
TGTCACACGTGGCGGG | -0.05 kcal/mol

Sequence | relative binding free energy
ACGCGCACGTGGGTGT | -0.41 kcal/mol
CGTTCCACGTGTTTGG | 0.15 kcal/mol
TGAGGCACGTGGATGG | -0.08 kcal/mol
GGAGGCACGTGAGGGA | 0.24 kcal/mol
TGGAACACGTGTGGAT | 0.2 kcal/mol
TGGTGCACGTGAGAGA | 0.16 kcal/mol
GGCTACACGTGGGGTA | -0.09 kcal/mol
TATTACACGTGTGATA | 0.35 kcal/mol
CGCAGCACGTGGGTTG | -0.28 kcal/mol
ACTAGCACGTGTTGTA | -0.06 kcal/mol
ATGCTCACGTGGGTAG | 0.05 kcal/mol
AGATGCACGTGAGTGG | 0.04 kcal/mol
CGCGTCACGTGGGTGG | -0.07 kcal/mol
GGGTGCACGTGAGACT | 0.05 kcal/mol
TGGTCCACGTGGACTT | 0.13 kcal/mol
GCTTGCACGTGGCGTG | -0.09 kcal/mol
AGGGGCACGTGCCTGG | -0.25 kcal/mol
GCGGACACGTGGAGGG | 0.1 kcal/mol
ATATGCACGTGGGTCA | -0.32 kcal/mol
CAGGGCACGTGGGGAA | -0.27 kcal/mol
ATAGGCACGTGTCTTG | -0.2 kcal/mol
ATATGCACGTGCTGGG | -0.15 kcal/mol
GGATCCACGTGCGGGT | -0.04 kcal/mol

Sequence | relative binding free energy
TTATGCACGTGGGCTG | -0.18 kcal/mol
TGAGACACGTGTGTTA | 0 kcal/mol
GGGGTCACGTGAACGG | 0.37 kcal/mol
GTGAGCACGTGAAGGT | 0.27 kcal/mol
TGTGTCACGTGTTCTT | 0.05 kcal/mol
TATGACACGTGGGTTT | -0.08 kcal/mol
TAAAGCACGTGTTGGG | -0.17 kcal/mol
GGTCGCACGTGATGTT | 0.05 kcal/mol
GTTTTCACGTGAGTCC | 0.43 kcal/mol
GGTACCACGTGGGGTA | -0.25 kcal/mol
TGCGTCACGTGGTCTT | -0.04 kcal/mol
GCGTGCACGTGGGGAC | -0.17 kcal/mol
GTGTCCACGTGGCTTT | 0.01 kcal/mol
TTGGTCACGTGCGTCT | -0.02 kcal/mol
TATCGCACGTGGGGGC | -0.1 kcal/mol
AGTATCACGTGTGGAG | 0.03 kcal/mol
GGAAGCACGTGCGGAG | -0.2 kcal/mol
GGTTACACGTGGCTGT | 0.1 kcal/mol
GGTGCCACGTGCGTGG | -0.05 kcal/mol
AGTGGCACGTGGTGTC | -0.15 kcal/mol
TGGGGCACGTGTAGAG | 0.03 kcal/mol
TGAGACACGTGGGGTA | -0.08 kcal/mol
GTATTCACGTGGAGGC | 0.31 kcal/mol

Sequence | relative binding free energy
AGGTTCACGTGTTTAA | 0.26 kcal/mol
TTTTCCACGTGTTACG | 0.2 kcal/mol
TTTTCCACGTGCTGGG | -0.04 kcal/mol
AAGGTCACGTGGTGGG | 0.16 kcal/mol
TGTTACACGTGGGCGT | 0 kcal/mol
GTGACCACGTGGGGTG | -0.15 kcal/mol
GATCACACGTGTGGAG | 0.24 kcal/mol
CTGGGCACGTGTTTAA | -0.14 kcal/mol
TAAGACACGTGTATTG | -0.07 kcal/mol
GTTACCACGTGAGGTT | 0.15 kcal/mol
GTTTGCACGTGAGCTA | 0.3 kcal/mol
CCATGCACGTGGTGGG | -0.23 kcal/mol
ATTTCCACGTGATTGG | 0.12 kcal/mol
AGTTGCACGTGTAACG | 0.04 kcal/mol
CGGGGCACGTGGCATA | -0.22 kcal/mol
ATTAGCACGTGTATAT | 0.03 kcal/mol
AATAGCACGTGTGGTA | -0.14 kcal/mol
TATGACACGTGGAATG | 0.07 kcal/mol
TTTGACACGTGTAACT | 0.1 kcal/mol
GCGTGCACGTGTTATA | 0 kcal/mol
AATGGCACGTGTCTGT | -0.04 kcal/mol
ATTATCACGTGGGGTT | 0 kcal/mol
GATTGCACGTGGGAGC | 0.19 kcal/mol

Sequence | relative binding free energy
GGGATCACGTGAGAGG | 0.4 kcal/mol
GGGTACACGTGGGAGG | 0 kcal/mol
GGTCTCACGTGGGTAA | 0.14 kcal/mol
GAGTACACGTGCGTGT | -0.08 kcal/mol
TAGAGCACGTGCTGGG | -0.13 kcal/mol
GGATGCACGTGACGGG | 0.19 kcal/mol
TCGATCACGTGGTGTG | 0.13 kcal/mol
GTGCTCACGTGTGGAA | 0.27 kcal/mol
AGGGACACGTGCGGTA | -0.08 kcal/mol
TAGAACACGTGGAAGT | 0.24 kcal/mol
TAGTTCACGTGTGCCT | 0.28 kcal/mol
ACAGTCACGTGATGGT | 0.15 kcal/mol
GAGTCCACGTGTGGTA | 0.06 kcal/mol
ATGTCCACGTGAGGCG | 0.31 kcal/mol
TAATTCACGTGAAATG | 0.31 kcal/mol
GGTTACACGTGTCTTA | 0.2 kcal/mol
AGGATCACGTGGATGA | 0.17 kcal/mol
AGGTTCACGTGGAGTC | 0.28 kcal/mol
AGTTTCACGTGAGACG | 0.3 kcal/mol
GTTAGCACGTGGAGAG | -0.04 kcal/mol
GTCATCACGTGAGTGT | 0.22 kcal/mol
CGGTGCACGTGTGGTA | -0.1 kcal/mol
CTTTTCACGTGGAATT | 0.35 kcal/mol
